According to the supplement of paper PMC10126150:
Sequences with one replicate were seen in a single cluster, so their values are uncertain.

Tested on: ATP
Experiment: switch fluorescence ratio, 500 uM ATP over buffer (Cy3 cluster intensity, sum of 5 cycles each) (fold (ratio)); higher = stronger signal-on switching upon ATP binding; sequences stand for … in TCGTCGGCAGCGTCAGATGTGTATAAGAGACAGTTTTTTTTTTTTTTTTTTTTTTTTT…TC
Conditions: aptamer strand: ATP DNA aptamer (quencher-CACCTGGGGGAGTATTGCGGAGGAAGG + anchor), 100 nM annealed; ATP concentration: 500 uM; one replicate
Outline: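 Between each of five buffer/ATP cycles, the flow-cell was stripped with NaOH and re-annealed. Each cycle imaged Cy3-labelled switching-strand clusters, annealed to 100 nM quencher-labelled ATP aptamer on a modified Illumina MiSeq flow-cell, first in selection buffer and then after 15 min with 500 uM ATP at 22 °C. The fluorescence ratio is summed target-cycle over summed buffer-cycle Cy3 intensity per cluster, averaged per switch-domain sequence, with clusters outside 100-1000 RFU excluded.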
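Note: ATP exposure 15 min at 22 °C before imaging.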

Row | Sequence | switch fluorescence ratio
1 | ATTTCTGAAG | 0.985
2 | TATTATGCAA | 1.12
3 | AGGGATGTCA | 0.998
4 | ACAAAAGAT | 0.948
5 | ACGCCGGAGT | 1.03
6 | TCTATGTGGG | 0.983
7 | TGTCCGGGCA | 0.957
8 | TGGAAACAGA | 0.989
9 | GGGCCGACCC | 1.01
10 | ATGATGTCTA | 0.996
11 | TCGAAAGATA | 0.999
12 | TTCAAGTTTG | 0.972
13 | CTGTTGGTCG | 0.886
14 | ACCCCCAAGG | 1.88
15 | CGTGAATGGA | 1.02
16 | CGTGAACCTT | 1.79
17 | CACTTTCTA | 1.01
18 | ACTAAATTAC | 1.13
19 | ACCGTTATAA | 1.19
20 | CTCCGACTGT | 3.39
21 | CACTGGACGA | 1.3
22 | AGGTTGTGTT | 0.966
23 | GTCTTTCATT | 1.01
24 | GGCGAACGAG | 0.995
25 | TTGGGCTGTA | 1.01
26 | CTTGTTGGTT | 1.02

Row | Sequence | switch fluorescence ratio
27 | GCAACCTGCA | 1.06
28 | TACACGAACA | 1.41
29 | TCGATACCGT | 0.985
30 | TATAGTTCGA | 1.02
31 | AATCGTGCGT | 0.95
32 | CATTATTATA | 0.969
33 | CGGAAAGATG | 1.04
34 | CGTACTATAG | 1
35 | GGGTATTTC | 0.977
36 | GCTCCATACA | 1.09
37 | TAGAGTCCGT | 1
38 | GTGCATGGAG | 0.962
39 | GGGTCCGACG | 1.14
40 | AAAGCCCGTC | 1.08
41 | TAGTATGCTA | 0.984
42 | TGCTATAGCC | 1
43 | GCATGCGTCC | 1
44 | AAGAAAACG | 1.01
45 | ATGATCTATA | 0.981
46 | ATTCGTAGCT | 1.07
47 | GCGAGAGGCC | 1.1
48 | GTGCGATGGG | 0.996
49 | TCTCTGAACT | 1.24
50 | AGGAAGACGT | 1
51 | GTCTGGGTCA | 0.996
52 | CGTTTAAAGG | 1.01

Row | Sequence | switch fluorescence ratio
53 | CTTAGTCCTC | 1
54 | AATGTAGCTT | 0.986
55 | TGGGCTTTTG | 1.69
56 | AAACTTGGTT | 1.01
57 | TTCCGAACGA | 3.67
58 | CGGTCAAATG | 1
59 | AGTAGGTTTC | 1.02
60 | GTCGCTGGGA | 0.984
61 | GTCTATTAAG | 0.971
62 | ATATTTAGTC | 1.01
63 | ATGTAGGGAT | 0.948
64 | AAACCATGTT | 1.04
65 | AAACTATATC | 1.05
66 | ATTCACAGGC | 1.09
67 | TGTGGCCAAA | 0.976
68 | CGCTCAGCAG | 1.44
69 | GTGAGAAGAC | 0.981
70 | AGAACCGTTA | 1
71 | TGGTGAGCTA | 0.942
72 | CGAAATCTTT | 1.03
73 | AGCTCTAGAA | 0.96
74 | TTTCGCCG | 0.884
75 | AGGTCCGCTC | 1.55
76 | TCAGTACAGT | 1.03
77 | TTCCTTTTCC | 1.1
